This note sets out measurements from the RNAGym collection of RNA variant scans (doi:10.7554/elife.90254).

The chains are these.
B1: LINE1-full (parent)
chain: UACGUAGGUGGUUUUCCCCUGAUAGUGCUAAGGGGGCCUGGAAGUUUGGACUGGGCAGAGCUCAACACAGCGUGGCAAAGUGGCUGUGGCUAGACUGCCUCUCUGGAUUCCUCGUCACUCAGCAGGGCAUCUCUGAGAGAAAUGCC

The source gives no read counts; variants with many changes may rest on few reads.

Variants of B1 are the subject of this data set. As to the kind of experiment: self-cleavage, relative activity (ratio to wild type); higher = more cleavage; in vitro, sequencing; the parent is a self-cleaving ribozyme.
As to UACGUAGGUGGUUUUCCCCUGGUAGUGCUAAGGGGGCCUGGAAGUUUGUACUGGGCAGAGCUCAACACAGCGUGGCAAAGUGGCUGUGGCUAGACUGCCUCUCUGGAUUCCCCGCCACUCAGCAGGGCAUCUCUGAGAGAAAUGCC [A22G G49U U112C U115C], the self-cleavage worked out at 0.38.

For UACGUAGGUGGUUUUCCCCUGGUAGUGCUAAGGGGGCCUGGAAGUUUGGACUGGGCAGAGCUCAACACAGCGUGACAAAGUGGCUGUGGCAAGACUGCCUCUCUGGAUUCCUCGUCACUCAGCAGGGCAUCUCUGAGAGAAAUGCC [A22G G75A U91A], the self-cleavage worked out at 0.41.

For the variant UACGUAGGUGGUUUUCCCCUGGUAGUGAUAAGGGGGCCUGGAAGUUUGGACCGGGCAGAGCUCAACACAGCGUGGCAAAGUGGCUGUGGCUAGAAUGCCUCUCUGGAUUCCUCGUCACUCAGCAGGGCAUCUCUGAGAGAAAUGCC [A22G C28A U52C C95A], the self-cleavage stood at 0.21.

On to UACGUAGGUGGUUUUCCCCUGGUAGUGCUAAGGGGGCCUGGAAGUUUGGACUGGGCAGAGCUCAACACAGGGUGGCAAAGUGGCUGUGGCUAGACCGCCUCUCUGGAUUCCUCGUCUCUCAGCAGGGCAUCUCUGAGAGAAAUGCC [A22G C71G U96C A117U], for which the self-cleavage was 0.05.

For the variant UACGUAGGUGGUUUUCCCCUGGUAGUGCUAAGGGCGCCUGGAAGUUGGGACUGGGCAGAGCUCAACACAGCGUGGCAAAGUGGCAGUGGCUAGACUGCCUCUCUGGAUUCCUCGUCACUCAGCAGGGCAUCUCUGAGAGGAAUGCC [A22G G35C U47G U85A A140G], the self-cleavage was 0.23.

Consider UACGUAGGUGGUUUUCCCCUGGUAGUGCUAAGGGGGCCUGGAAGUUUGGACUGGGCAGAGCUCAACACAGCGUGGCAAAGUGGCUGUGGCUAGACUGCCUCUCUGGAUUCCUCGUCACUCAGCAGGGCAUCUCUGAGAGGAGUGCC [A22G A140G A142G], for which the self-cleavage is 1.33.

Consider UACGUAGGUGGUUUUCCCCUGGUAGUGAUAAGGGGGCCUGGAAGUUUGGACUGGGCAGAGCUCAACACAGCGUGGCAAAGUGGCUGUGGCUAGACUGCCUCUCUGGAUUCCUCGUCACUCAGCAGGGCAUCUCUGAGUGAAAUGCC [A22G C28A A138U], for which the self-cleavage worked out at 0.77.

As for UACGUAGGUGGUUUUCCCCUGGUAGUGCUAAAGGGGCCUGGAAGUUUGGACUGGGCAGAGCUCAACACAGCGUGGCAAAGUGGCUGUGGCUAGACUGCCUCUCUGGAUUCCUCGUCACUCGGCAGGGCAUCUCUGAGAGAAAUGCC [A22G G32A A121G], the self-cleavage was 1.16.

With UACGUAGGUGGUUUUCCCCUGGUAGUGCUAAGGGGGCCUGGAAGUUUGGACUGGGCAGAGCUCAACACAGCGUGGCAAAGUGGCUGUGACUAGACUGCCUCUCUGGAUUCCUCGUCACUCAGCAGGGCACCUCUGAGAGAAAUGCC [A22G G89A U130C], the self-cleavage was 0.04.

For UACGUAGGUGGUUUUCCCCUGGUAGUGCUAAGGGGGUCUGGAAGCUUGGACUGGGCAGAGCUCAACACAGCGUGGCAAAGUGGCUGUGGCUAGACUGCCUCUCUGGAUUCCUCGUCACUCAGCAGGGCAUCUCUGAGAGAAAUGCC [A22G C37U U45C], the self-cleavage stood at 1.06.

Turning to UACGUAGGUGGUUUUCCCCUGGUAGUGCUAAGGGGGCCUGGAAGUUUGGACUGGGCAGAGUUCAACACAGCGUGGCAAAGUGGCUGUGGCUAGGCUGCCUCUCUGGAUUCCUCGUCACUCAGCAGGGCAUCUCUGAGAGAAAUGUC [A22G C61U A94G C145U], the self-cleavage came out at 0.

With UACGUAGGUGGUUUUCCCCUGGUAGUGUUAAGGGGGCCUGGAAGUUUCGACUGGGCGGAGCUCAACACAGCAUGGCAAAGUGGCAGUGGCUAGACUGCCUCUCUGGAUUCCUCGUCACUCAGCAGGGCACCUCUGAGAGAAAUGCC [A22G C28U G48C A57G G72A U85A U130C], the self-cleavage was 0.

With UACGUAGGUGGUUUUCCCCUGGUAGUGCUAAGGGGGCCUGGAAGUUUAGACUGGGCAGAGCUCAACACAGCGUGGCAAAGUGGCUGUGGCUAGACUGCCUCUCUGGAUUCCUCGUCACUCAGCAGGGCAUCUCUGAGAGAGAUGCC [A22G G48A A141G], the self-cleavage was 0.88.

For UACGUAGGUGGUUUUCCCCUGGUAGUGCUAAGCGGGCCUGGAAGUUUGGACUGGGCAGAGCUCAACUCAGCGUGGCAAAGUGGCUGUGGCUAGGCUGCCUCUCUGGAUUCCUCGUCACUCAGCAGGGCAUCUCUGAGAGAAAUGCC [A22G G33C A67U A94G], the self-cleavage came out at 0.24.

As for UACGUAGGUGGUUUUCCCCUGGUAGUGCUAAGGGGGCCUGGAAGUUUGGACUGGGCAGAGCUCAACACAGCGUGGCAAAGUGGCUGUGGCUAGACUGCCUCUCUGGAUUCCUAGUCACUCGGCAGGGCAUCUCUGAGAGAAAUGCC [A22G C113A A121G], the self-cleavage is 1.38.

As to UACGUAGGUGGUUUUCCCCUGGUAGUGCUAAGGGGGCCUGGAAGUUUGGACUGGGCAGAGCUCAACACAGCGUGGCAAAGUGGAUGUGGCUAGACUGCCUCUCUGGAUUCCUCUUCACUCAGCAGGGCAUCCCUGAGAGAGAUGCC [A22G C84A G114U U132C A141G], the self-cleavage was 0.16.

As for UACGUAGGUGGUUUUCCCCUGGUAGUGCUAAGGGGGCCUGGAAGUUUGGACUGGGCAGAGCUCAACACAGCAUGGCAAAGUGGCUGUGGCUAGACUGCCUCUCUGGAUUCCUCGUCACUCAGCAGGGCUUCUCUGAGAGAAAUGCC [A22G G72A A129U], the self-cleavage worked out at 1.1.

With UACGUAGGUGGUUUUCCCCUGGUAGUGCUAAGGGGGCCUGGAAGUUUGGACUGGGCAGAGCUCAACACAGCGUAGCAAAGUGGCUGUGGCUAGACUGCCUCUCCGGAUUCCUCGUCACUCAGCAGGGCAUCUCUGAGAGAAAUGCC [A22G G74A U104C], the self-cleavage was 1.28.

As for UACGUAGGUGGUUUUCCCCUGGUAGUGCUAAGGGGGCCUGGAAGUUUGGACUGGGCAGAGCUCAACACAGCGUGGCAAAGUGGCUGUGGCUAGACUGCCUUUCUGGAUUCCUCGUCACUCAGCAGGGUAUCUCUGAGAGAAAUGCC [A22G C101U C128U], the self-cleavage is 0.85.

Turning to UACGUAGGUGGUUUUCCCCUGGUAGUGCUAAGAGGGCCUGGAAGUUUGGACUGGGCAGAGCUCAACACAGCGUGGCAAAGUGGCUGUGGCUAGACUGCCUCUCUGGAUUCCUCGUCACUCAGCAGGGCUUCUCUGAGAGAAAUGCC [A22G G33A A129U], the self-cleavage amounted to 0.89.
